Laboratory results published in PubChem BioAssay AID1347165 (National Center for Advancing Translational Sciences (NCATS), 2019).
Where “and” joins values, the source holds several entries; their conditions need not be identical. Identical values can stand only once. About 5,700 (2.6%) of roughly 220,000 compounds were called active. Inconclusive results, whose numbers are uncertain, are shown with a selection of clear calls. Calls come from the whole dose curve; as a rule, active = well fitted inhibition curve with a large enough effect; inconclusive = small, poorly fitted or top-dose-only effect; inactive = no such curve, though single readings can be large or run the other way. Where the call is inconclusive, the potency comes from a doubtful curve fit.

molecular target: Lysine-specific demethylase 5B (Homo sapiens) (UniProt Q9UGL1); assay: Primary screen for KDM5B Histone Demethylases FDH-coupled qHTS; details: FDH-coupled NADH fluorescence (FDH is formaldehyde dehydrogenase); activity change, negative = inhibition: at 57.7 µM (top of the series) unless noted; note: nearly all actives have a fitted effect of over 70% in size; for activity change, negative = inhibition: 0% is about no effect
Sequence of UniProt Q9UGL1 (Q9UGL1 whole entry, looked up): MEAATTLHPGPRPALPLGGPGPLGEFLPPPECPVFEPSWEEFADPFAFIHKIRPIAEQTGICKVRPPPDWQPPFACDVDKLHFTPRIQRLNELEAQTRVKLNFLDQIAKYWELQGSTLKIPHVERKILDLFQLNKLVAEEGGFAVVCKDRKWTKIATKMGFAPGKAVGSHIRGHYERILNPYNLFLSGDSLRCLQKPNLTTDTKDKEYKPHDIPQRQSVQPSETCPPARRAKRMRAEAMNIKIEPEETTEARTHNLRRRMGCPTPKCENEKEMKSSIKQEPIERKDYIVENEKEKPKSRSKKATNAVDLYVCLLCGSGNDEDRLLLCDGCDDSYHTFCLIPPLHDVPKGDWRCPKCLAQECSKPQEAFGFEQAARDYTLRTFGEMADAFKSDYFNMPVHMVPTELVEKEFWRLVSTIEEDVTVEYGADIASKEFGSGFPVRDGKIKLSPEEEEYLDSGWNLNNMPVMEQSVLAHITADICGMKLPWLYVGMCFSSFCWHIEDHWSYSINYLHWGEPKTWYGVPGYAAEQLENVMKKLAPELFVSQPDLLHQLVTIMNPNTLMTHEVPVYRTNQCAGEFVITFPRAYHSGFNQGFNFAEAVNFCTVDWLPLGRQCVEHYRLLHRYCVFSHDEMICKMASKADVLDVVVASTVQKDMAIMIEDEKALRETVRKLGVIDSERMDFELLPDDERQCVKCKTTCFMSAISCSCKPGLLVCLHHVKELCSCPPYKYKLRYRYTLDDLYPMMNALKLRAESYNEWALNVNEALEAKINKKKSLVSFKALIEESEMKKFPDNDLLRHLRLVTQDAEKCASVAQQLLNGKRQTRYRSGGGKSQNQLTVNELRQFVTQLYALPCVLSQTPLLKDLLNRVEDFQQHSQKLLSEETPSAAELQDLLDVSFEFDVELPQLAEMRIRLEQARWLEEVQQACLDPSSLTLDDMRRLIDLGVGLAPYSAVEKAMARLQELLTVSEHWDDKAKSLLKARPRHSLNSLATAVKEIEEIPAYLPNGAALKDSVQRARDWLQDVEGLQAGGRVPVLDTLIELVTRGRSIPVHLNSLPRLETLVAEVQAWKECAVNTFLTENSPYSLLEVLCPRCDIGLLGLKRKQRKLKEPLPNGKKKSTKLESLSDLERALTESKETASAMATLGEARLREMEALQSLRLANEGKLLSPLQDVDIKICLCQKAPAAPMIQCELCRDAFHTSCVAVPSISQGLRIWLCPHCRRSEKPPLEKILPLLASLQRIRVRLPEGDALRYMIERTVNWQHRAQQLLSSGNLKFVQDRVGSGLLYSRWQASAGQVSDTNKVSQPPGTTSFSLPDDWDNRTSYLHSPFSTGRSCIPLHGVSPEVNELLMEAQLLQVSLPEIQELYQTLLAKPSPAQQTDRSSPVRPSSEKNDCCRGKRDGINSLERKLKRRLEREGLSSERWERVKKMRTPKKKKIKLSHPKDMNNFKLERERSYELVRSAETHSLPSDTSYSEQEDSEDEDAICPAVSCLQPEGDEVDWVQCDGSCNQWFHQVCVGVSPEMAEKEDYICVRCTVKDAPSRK
Outline: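 Compound dilutions met 200 nM (final) KDM5BΔAP for 10 min at room temperature before substrate addition. The substrate mix held 12.5 µM H3K4me3 with cofactors 25 µM α-ketoglutarate and 50 µM Fe²⁺. NADH signal gain over 30 min defined activity.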
Potency is the fitted concentration of half-maximal effect; tags give direction and shape of the fitted curve.

Compound | Potency | activity change, negative = inhibition
CCCn1c(-c2ccc(F)cc2)nc2c1c(=O)[nH]c(=O)n2Cc1ccccc1 | inconclusive: 35.5 µM [inhibitor, single point] | –
O=C(c1nc(-c2ccc(Cl)nc2)c2ccccn12)N1CCN(c2ncccn2)CC1 | inconclusive: 2.51 µM [inhibitor, full curve, poor fit] | –
O=C(NCc1ccc(Cl)cc1)c1cc2n(n1)CC(c1ccc(Cl)cc1)OC2 (stereo unspecified) | inconclusive: 35.5 µM [inhibitor, single point] | –
Cc1nc(CN2CC3(CCN(C)C3)c3cc(C(=O)NCc4ccccc4)ccc32)cs1 (stereo unspecified) | active: 35.5 µM | –
CCCC(=O)N(c1ccc(OC)cc1OC)C1C=CS(=O)(=O)C1 (stereo unspecified) | – | inactive: 7.74%
Cc1nn(CC(C)C)c2sc(C(=O)N3CCN(S(=O)(=O)c4ccc(F)c(Cl)c4)CC3)cc12 | – | inactive: 9.74%
O=C(COc1cccc(F)c1)c1ccc2c(c1)N(CC(=O)N1CCOCC1)C(=O)CO2 | – | inactive: -16.4%
CC(C)CCNC(=O)C(=O)NC1CCCCC1 | – | inactive: 10.5%
Cc1nnc(N2C(=O)C(O)=C(C(=O)c3ccco3)C2c2cccc3ccccc23)s1 (stereo unspecified) | inconclusive: 25.1 µM [inhibitor, partial curve, poor fit] | –
CCN1c2cc(C(=O)Nc3cccc(C#N)c3)ccc2C(=O)N2CCCCC21 (stereo unspecified) | inconclusive: 20 µM [inhibitor, single point] | –
COCCn1c2c(c(=O)n1-c1ccccc1)CCN(Cc1ccncc1Cl)C2 | active: 35.5 µM | –
O=C/C=C/c1ccc([N+](=O)[O-])cc1 | inconclusive: 14.1 µM [inhibitor, partial curve, poor fit] | –
CCC1=NN2C(=N)/C(=C/c3cc(C)n(Cc4ccccc4)c3C)C(=O)N=C2S1 | inconclusive: 25.1 µM [inhibitor, single point] | –
C=CCNC(=O)C[C@@H]1CCN(C(=O)Nc2cccc(C(F)(F)F)c2)C[C@@H]1CC | – | inactive: 8.61% [at 86.2 µM]
Cc1cc(C)c(OCC(=O)N2CCC(NC(=O)c3ccccc3)CC2)c(C)c1 | – | inactive: 11.9%
Cc1ccc(C(=O)N2CCC(CCC(=O)N3CCN(c4ccccn4)CC3)CC2)cc1 | active: 28.2 µM | –
COCCCNc1nc2c(S(=O)(=O)c3ccc(C)cc3)nnn2c2ccccc12 | active: 79.4 µM | –
CCc1ccccc1NC(=O)CSC1=Nc2ccccc2C2=NC(Cc3ccccc3)C(=O)N12 (stereo unspecified) | inconclusive: 28.2 µM [inhibitor, partial curve, poor fit] | –
CCOc1ccc(NC(=O)CSc2nccc(-c3cccc(OC(F)F)c3)n2)cc1 | – | inactive: -28.9%
CCCN(CCC)c1nc(-c2ccccc2F)nc2ccccc12 | inconclusive: 50.1 µM [inhibitor, single point] | –
CCOc1ccc(/C=C/c2nc(C#N)c(NCCCn3ccnc3)o2)cc1 | inconclusive: 2 µM [inhibitor, full curve, poor fit] | –
COc1cccc(-c2cc(C(=O)Nc3ccncc3)c3ccccc3n2)c1 | inconclusive: 35.5 µM [inhibitor, single point] | –

Compound | Potency | activity change, negative = inhibition
CCOc1ccc(NC(=O)c2c(NCc3sccc3C)sc3c2CCCCC3)cc1 | inconclusive: 25.1 µM [inhibitor, partial curve, poor fit] | –
COc1ccc(CNC(=O)c2ccc3c(c2)N(Cc2ccccc2F)C(=O)c2ccccc2S3(=O)=O)cc1 | inconclusive: 10 µM [inhibitor, partial curve, poor fit] | –
COCCNC(=O)CCc1c(C)nc2c(c(C)nn2-c2ccc(C)cc2)c1C | inconclusive: 4.47 µM [inhibitor, partial curve, poor fit] and inconclusive: 25.1 µM [inhibitor, partial curve, poor fit] | –
Cc1cc(F)ccc1NC(=O)CN(C)S(=O)(=O)c1ccc(C(=O)N2CCOCC2)s1 | – | inactive: -0.076%
Fc1cccc(-c2cn[nH]c2C2CCNCC2)c1 | – | inactive: -23.2%
CCN1c2cc(C(=O)N3CCN(c4ccccc4)CC3)ccc2C(=O)N2CCCCCC21 (stereo unspecified) | inconclusive: 31.6 µM [inhibitor, partial curve, poor fit] | –
COCC1CN(C)CC12CCN(Cc1ccsc1)CC2 (stereo unspecified) | inconclusive: 12.6 µM [inhibitor, partial curve, poor fit] | –
CCC(CC)C(=O)N1N=C(c2cccc(OC)c2)CC1c1ccc2nccnc2c1 (stereo unspecified) | – | inactive: -2.27%
O=C(O)c1cc(-c2ccccn2)nc2ccc(F)cc12 | – | inactive: -12.2%
O=c1[nH]c(N2CCOCC2)nc2nccc(-c3ccsc3)c12 | inconclusive: 10 µM [inhibitor, partial curve, poor fit] | –
CCOc1ccc(-c2cc3c(=O)n(CCNC(=O)c4cccc5[nH]ccc45)ccn3n2)cc1 | active: 28.2 µM | –
Cc1ccc2nc(C)c(C(=O)N3CCN(Cc4ccccc4)CC3)cc2c1 | – | inactive: -6.45%
COCC(=O)NC[C@H]1CCN(Cc2cc(C)nn2C)C[C@H]1N(C)C | inconclusive: 28.2 µM [inhibitor, single point] | –
COc1ccc(CNC(=O)c2cc3cc(S(=O)(=O)N4CCCCC4)ccc3n2C)c(OC)c1 | inconclusive: 25.1 µM [inhibitor, partial curve, poor fit] | –
Fc1ccccc1-c1nnc(SCc2c(F)c(F)c(F)c(F)c2F)n1C1CC1 | – | inactive: -26.1%
O=c1c2sc3ccccc3c2n(Cc2cccc(C(F)(F)F)c2)c(=O)n1Cc1ccccc1 | inconclusive: 7.08 µM [inhibitor, partial curve, poor fit] | –
Cc1ccc(CN2CC(Oc3ccccc3C(=O)N3CCOCC3)C2)cc1C | – | inactive: 6.2%
COc1ccc(NC(=O)CSc2nc(-c3cccs3)cc(C(F)(F)F)c2C#N)cc1 | inconclusive: 39.8 µM [inhibitor, single point] | –
Cc1c(Cl)cccc1N1C(N)=C(C#N)C(c2cc(CN3CCOCC3)cs2)C2=C1CCCC2=O (stereo unspecified) | inconclusive: 10 µM [inhibitor, partial curve, poor fit] | –
CCOC(=O)N1CCc2c(sc(NCc3ccc(N(C)C)cc3)c2C(=O)Nc2ccc(OC)cc2)C1 | inconclusive: 12.6 µM [inhibitor, partial curve, poor fit] | –
CCOC(=O)CNc1cccc(C(=O)O)c1 | inconclusive: 28.2 µM [inhibitor, single point] | –
Cc1ccc(C(=O)N2CCC3(CC2)NC(=O)N(c2ccccc2Cl)N3)cc1 | inconclusive: 28.2 µM [inhibitor, single point] | –

Compound | Potency | activity change, negative = inhibition
O=C(NCCCNC(=O)c1cc2ccccc2[nH]1)c1ccc(-c2ccccc2)cc1 | – | inactive: -16.8%
COCCNC(=O)c1cccc(Nc2nc3ccccc3n3nnnc23)c1 | inconclusive: 39.8 µM [inhibitor, single point] | –
CCOc1cc(CNC(=O)c2ccc3c(c2)N(C)C(=O)C2CCCCN32)cc(OCC)c1OCC (stereo unspecified) | inconclusive: 8.91 µM [inhibitor, partial curve, poor fit] | –
O=C(Nc1ccc(F)cc1F)c1cc2c(=O)n3ccccc3nc2s1 | inconclusive: 28.2 µM [inhibitor, partial curve, poor fit] | –
Cn1ncc2c(C(=O)NCc3cccnc3)cc(-c3ccc(Cl)nc3)nc21 | active: 44.7 µM | –
Cc1oc(CO)cc1C(=O)OC(C)C(=O)Nc1cc(F)ccc1F (stereo unspecified) | – | inactive: -11%
COC(=O)CNC(=O)c1cc(-c2ccccc2OC)c2cnn(C)c2n1 | inconclusive: 56.2 µM [inhibitor, single point] | –
CC1(C)C[C@H](NCc2ccc(CO)o2)[C@@]2(CCC(=O)NCCN3CCOCC3)CC[C@](C)(O)C[C@@H]12 | inconclusive: 25.1 µM [inhibitor, single point] | –
COc1ccc(OC)c(CN2CCc3ccccc3C2)c1 | inconclusive: 31.6 µM [inhibitor, partial curve, poor fit] | –
CN(C)CCN(C)C(=O)c1ccc2c(c1)NC(C)(COc1ccc3[nH]ccc3c1)CO2 (stereo unspecified) | inconclusive: 25.1 µM [inhibitor, partial curve] | –
O=C(Nc1cccc(F)c1)N1CCCC(c2nn[nH]n2)C1 (stereo unspecified) | inconclusive: 31.6 µM [inhibitor, single point] | –
COc1ccc(/C=C(/C#N)c2ccc(C(F)(F)F)cn2)cc1O | – | inactive: -8.56%
CC(CCc1ccccc1)NC(=O)c1cccnc1Cl (stereo unspecified) | – | inactive: 23%
O=C(C1CC(=O)N(c2n[nH]c3ccccc23)C1)N1CCC(c2noc3cc(F)ccc23)CC1 (stereo unspecified) | inconclusive: 22.4 µM [inhibitor, partial curve, poor fit] | –
COc1cccc([S+](=O)([O-])N2CCCC3(CC(C(C)C)=NO3)C2)c1 (stereo unspecified) | inconclusive: 112 µM [inhibitor, single point] | –
CC(=O)NCC1Cn2cccc2CN1Cc1ccccc1 (stereo unspecified) | active: 28.2 µM | –
CC(C)CN1C(=O)N(Cc2ccccn2)C(=O)C12CCN(Cc1ccc3c(c1)CCO3)CC2 | inconclusive: 39.8 µM [inhibitor, partial curve, poor fit] | –
O=C(Nc1cc(-c2cccc(F)c2)no1)c1noc2c1COc1ccccc1-2 | – | inactive: -15.8%
COc1ccc(OC)c(NC(=O)N2c3ccccc3Sc3ccccc32)c1 | inconclusive: 25.1 µM [inhibitor, partial curve, poor fit] | –
COCCN[C@@H]1C[C@@H]2c3[nH]c4ccccc4c3C[C@@H](C(=O)OC)N2[C@H](c2ccc(C(F)(F)F)cc2)C1 | inconclusive: 31.6 µM [inhibitor, single point] | –
Cc1oc2ncnc(N3CCOCC3)c2c1C(=O)Nc1ccc(C(C)C)cc1 | – | inactive: 4.57%
CCN(CC)S(=O)(=O)c1ccc(N(C)C)c(NS(=O)(=O)c2c(C)cc(C)cc2C)c1 | inconclusive: 11.2 µM [inhibitor, partial curve, poor fit] | –
